Laboratory results reported in article PMC10668032.
This is one part of the list. At the low end of the ranking the order means little.

What follows are sequences tested against SIX1-Q177R homeodomain (UniProt Q15475) (assay: universal protein binding microarray). Settings: Universal all-10-mer PBM (8x60K, AMADID 030236), 300 nM GST-tagged protein, Alexa Fluor 488 anti-GST; buffer, salt, pH and temperature not stated; high values mean tight binding; most listed sequences are background and not binding sites; double strand, one strand shown.

Sequence	binding signal [E-score]
CTGCACAA	-0.0171
ATTGGGAA	-0.257
TGAACGCA	-0.158
CTGCGACA	0.195
ACGGAGCA	0.0445
GCCTATCA	-0.0411
TCCGCGAA	0.126
GCGACAAC	-0.0776
AGGACCGG	-0.237
AACATGGT	0.0141
CAAGATAG	0.0837
ATTCTACC	0.0876
CGAACGAG	0.0669
CCGGGGGC	0.126
CGGTCGCC	-0.0949
ATCTGGTA	0.091
GGCCTCAC	-0.065
AGGACGAT	-0.0369
CAAATGCA	-0.1
TCTGTACA	0.0322
AAAGGCAA	-0.2
CGTCGTCC	-0.185
AGTTTCAT	-0.131
ATGCCATC	-0.172
ACCAGTAC	0.151

Sequence	binding signal [E-score]
AGATGTTC	-0.295
ATTGGGGA	0.168
ACGAACGC	-0.0636
CATATAGC	-0.0104
ACCTGTAA	-0.0835
AAGGCGCA	0.0219
ATTCGAAC	-0.0182
GACAGAGC	-0.176
CTTCTAAA	-0.142
GCACGCGC	-0.0284
GCCGGAAC	-0.0726
CCGCGTCC	-0.0369
GGCTGTCA	-0.229
AGAATACT	-0.0672
ACGGAAAC	0.0112
AGTGCAGA	-0.128
AGTACGGC	0.0268
ATGCATCA	-0.236
GCCCCGCC	0.175
CCTCAGGC	-0.161
GGGCTGCA	-0.215
AACATAGA	-0.0792
TCCTTAGA	0.0278
ACAGGAAC	-0.0963
GTCGTGTA	0.438

Sequence	binding signal [E-score]
GCTGACCA	-0.0425
GGCGAATA	-0.0499
GGCTCGGA	-0.119
ATCATTCC	-0.119
CAGTGCTC	0.0709
AACAAAGA	-0.142
AGTCTACC	-0.198
CAGCCCAA	-0.081
GGCCTCTA	-0.0796
GAGCACTC	0.0801
CCGCCCTA	0.0369
AATCCGCT	0.0295
TACCAACA	0.167
ACGCGGTG	0.334
AGCGGATA	-0.0232
AGGCGTTC	-0.0898
CTCCCGAG	0.108
AGAAGCCC	-0.216
TGCCTTAA	-0.208
GTGGAGTA	0.29
AATAATAG	-0.13
CCCAATTA	0.0345
CCTGAGGC	-0.0265
AAAAGTTT	-0.138
GTTAGCGA	0.114

Sequence	binding signal [E-score]
ACACTTCT	0.374
TCCCAGGA	-0.0813
TCTAGTCA	-0.124
TCGCGGCA	-0.05
ATAAGAAC	-0.112
CGAACGTA	-0.0625
AAGGCTCC	-0.175
AGGATTAC	0.0105
GCATAGCA	-0.144
TATGATAA	0.0472
TAAGCGCA	-0.229
CAAATAGC	-0.252
GGAATGCA	-0.185
GCACGGCA	-0.216
ATAAATAT	-0.119
AGTTTATC	0.208
CTTGTATC	0.0319
AAAGGATT	-0.0878
ATAGAACC	-0.12
AACTGCGT	-0.0421
GCGATACC	0.311
ACGCTGGA	0.121
GTGGCACA	0.00358
ATTGTATC	-0.0445
CAAGCCCG	0.0225

Sequence	binding signal [E-score]
AATTTACA	0.182
AGAACACT	0.344
GTGACCAA	-0.107
CTGTGTCA	0.256
AAGCCCAA	-0.0238
GGATATAA	-0.0376
GATATTAA	0.0648
ACTGTCCA	-0.0571
GGACGCCC	0.043
CATGCGTA	-0.0502
AGACATCA	-0.0731
ATACGGAA	-0.104
CTGGTCCA	-0.0407
AGCGGGTA	0.158
ATAGCGAA	-0.16
CATAGTCA	-0.197
GATCCCGC	0.185
AATAATAA	0.00188
AGAGACCT	-0.3
GAAAAACA	0.108
ACTTCGTA	-0.193
AGGGGTAC	0.273
GGCGTGAC	0.0401
AGTGTTTG	0.336
CTCGAGAC	0.0473

Sequence	binding signal [E-score]
CCATACGA	-0.0127
GTAATCGA	0.204
TCGTACGA	-0.0591
GACTTTCA	-0.204
CAATCCCG	0.0598
CAATACGA	0.0173
GGTCCTGA	-0.128
CGTACGAC	0.0567
CCGGTCCG	-0.114
ACCTATTC	-0.152
CGGTCACG	-0.234
ACCGGAGT	0.25
TACCCCCA	0.304
AGTCCTTG	-0.279
CTGTACTA	-0.185
TAGTCTAA	-0.241
ACCGGTCG	-0.0599
GGATGTGA	-0.154
CGTACAGA	-0.0605
ACCTGCTC	0.0304
GCAGCGCC	-0.174
TTCAAGAA	-0.0127
AAAAGGCC	-0.0372
CGATGTCA	-0.233
GCAGTGCA	-0.0186

Sequence	binding signal [E-score]
ACTGTGTA	0.139
CGGCGTTC	-0.0306
CTGTGCAC	0.216
ACCTCGTC	-0.0193
AACCGAAG	-0.112
CGACCCTC	0.0648
AAATATTG	-0.229
GTCAGTAA	0.111
ACACCGAG	0.478
GCACGCAA	0.0455
CGCCATAA	-0.144
CGGAAGGA	-0.0458
AAGGAGCC	-0.0656
GATCACGA	-0.001
GCATGATA	-0.027
AGGAAAAA	-0.217
GAATGCGC	0.0683
TGTTATAA	0.267
GGCGCACC	0.149
AAAGACAC	0.425
CCCTGCCG	0.0946
CCAAATGC	-0.0339
